Test results: article PMC7819943, “Rice protein-binding microarrays: a tool to detect cis-acting elements near promoter regions in rice”
The other results are listed elsewhere or left out.

These sequences were tested against T1, OsWOX13 (Oryza sativa, UniProt Q5QMM3 1-267) (assay: protein-binding microarray (RPBM); PBS, 2% BSA, 51.3 ng/ul salmon testes DNA, 50 uM zinc acetate, 200 nM TF, 25 C, 1 h; high values mean tight binding). Conditions: protein: recombinant; tags: N-terminal polyhistidine and DsRed monomer fusion (pET32a); label: CyDye5-dUTP incorporated in the synthesized complementary strand; 3' TTTTT single-stranded linker to array surface; dsDNA, one strand shown.
T1 sequence: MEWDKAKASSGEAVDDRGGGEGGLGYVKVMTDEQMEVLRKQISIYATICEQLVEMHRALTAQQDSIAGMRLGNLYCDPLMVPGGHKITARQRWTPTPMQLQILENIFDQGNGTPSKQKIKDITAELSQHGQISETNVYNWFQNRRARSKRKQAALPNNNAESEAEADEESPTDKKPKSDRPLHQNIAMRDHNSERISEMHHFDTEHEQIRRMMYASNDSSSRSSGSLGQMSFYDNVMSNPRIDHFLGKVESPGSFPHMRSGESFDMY
Outline: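 Per-feature fluorescence intensity (arbitrary units), read on an Axon 4000B scanner, is the binding signal. Transcription factors carrying an N-terminal polyhistidine tag and DsRed fusion were expressed in E. coli BL21-CodonPlus and purified on Ni–NTA. A custom Agilent array, made double-stranded by primer extension with Cy5-dUTP and blocked with 2% BSA, was incubated with 200 nM protein in PBS, 2% BSA, salmon testes DNA and 50 µM zinc acetate at 25 °C for 1 h and then washed.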

Sequence | binding signal
GCATAAACATATAAATTGAAATTCGTCTTCTACAAGTTGTCGGAGTCACCTAGTGCAG | 23300 fluorescence intensity (a.u.)
AGGTCAATCAAAACCCGCCGATCGTACTAACCGTGAATTACGGAGTCACCTAGTGCAG | 7850 fluorescence intensity (a.u.)
GTGGATGCTATTTTAATTTAATTATTATTATACGGTTTAGCGGAGTCACCTAGTGCAG | 6640 fluorescence intensity (a.u.)
GTTAATGTTAATGGGTCTCGTGCAGTGAATGCAACTCTGGCGGAGTCACCTAGTGCAG | 4610 fluorescence intensity (a.u.)
ACTTAACTTATGATATAAATGACCTGTACAATTTCATCGACGGAGTCACCTAGTGCAG | 8670 fluorescence intensity (a.u.)
CCAAACACTTCCATCCAATCATCCAAAATGTAACAAAGAACGGAGTCACCTAGTGCAG | 3650 fluorescence intensity (a.u.)
TCCTTTATTATCTGTAATTGTAAAATCTTCAGATGAACACCGGAGTCACCTAGTGCAG | 6210 fluorescence intensity (a.u.)
CCTGATAATAAGGATCAATCAGAGGAAGAAGAGCCTATCACGGAGTCACCTAGTGCAG | 16200 fluorescence intensity (a.u.)
ACCACTAAATATTCTTAAATGATTATATTAAAATGAGCATCGGAGTCACCTAGTGCAG | 8360 fluorescence intensity (a.u.)
TAAGGTGCAGATTGATTTGCCATCCCAGAGCAGCAGCTTGCGGAGTCACCTAGTGCAG | 29500 fluorescence intensity (a.u.)
TCCGTCTCTCACCTTCAATCAAACTACAGAAATCTGAACCCGGAGTCACCTAGTGCAG | 7900 fluorescence intensity (a.u.)
ATCTGTACAGTTTGTGACTAATTTGCAAGACGAATCTTTTCGGAGTCACCTAGTGCAG | 6130 fluorescence intensity (a.u.)
GCCATCAATCATTAACAAAACCAAACCCACACCCAGAAATCGGAGTCACCTAGTGCAG | 15900 fluorescence intensity (a.u.)
AAGACGACAATGATTTTCCTTCTCACTCGTCATCCCTTGTCGGAGTCACCTAGTGCAG | 5190 fluorescence intensity (a.u.)
CTATACAATCACGGGAATGTTGCAGCATCTGCTGCTGCCACGGAGTCACCTAGTGCAG | 5390 fluorescence intensity (a.u.)
TGGAAATTGATGGAGGATGATCTGCAATTAGAAAGAAGAACGGAGTCACCTAGTGCAG | 29700 fluorescence intensity (a.u.)
CGAATTTTATATTGGTCAATCAAACTCATACGGAGAAATACGGAGTCACCTAGTGCAG | 6510 fluorescence intensity (a.u.)
GTCGCTGTTCTAAATGATTTCCATTACGAGTATTTACGAGCGGAGTCACCTAGTGCAG | 4960 fluorescence intensity (a.u.)
TTTTATAGTCATTGATAGACAAAATTATATAAGATTATCGCGGAGTCACCTAGTGCAG | 15400 fluorescence intensity (a.u.)
TTTAAATATAGACTGTTATTATTGTTTAGTATTGCGTTATCGGAGTCACCTAGTGCAG | 7200 fluorescence intensity (a.u.)
GCCTGACACGATGGGTAATTAAATAGTTATGCATGTCCCTCGGAGTCACCTAGTGCAG | 15200 fluorescence intensity (a.u.)

Sequence | binding signal
ATGGGATTGCTCATCATGTTTTGGCTTCCGGCTGGCTAACCGGAGTCACCTAGTGCAG | 14000 fluorescence intensity (a.u.)
AAAATGTTCAATAAACTGAATACAGATTGATACACTCACCCGGAGTCACCTAGTGCAG | 17700 fluorescence intensity (a.u.)
ATATTGATTGCATAAAGAAAGTTCGGTCCTGTTCACTTTGCGGAGTCACCTAGTGCAG | 39900 fluorescence intensity (a.u.)
GACTAATTCACATAAACAAATCCATCATCTTTAATCCAAACGGAGTCACCTAGTGCAG | 3380 fluorescence intensity (a.u.)
CTTGTTAATTGTGAAACTTCGGTCAAAATATATGGTCTAACGGAGTCACCTAGTGCAG | 9990 fluorescence intensity (a.u.)
TTTGATGATAAACGATAAAATAAACAAAATTTATACATATCGGAGTCACCTAGTGCAG | 4050 fluorescence intensity (a.u.)
GGGAGATTTGTAGTGCCGTGATAATTATGATGCCGCCAAACGGAGTCACCTAGTGCAG | 8610 fluorescence intensity (a.u.)
TCTAAAATGAATGGGTGAAATTGGCGCCAAGTTATCTGCTCGGAGTCACCTAGTGCAG | 8620 fluorescence intensity (a.u.)
ATTTATATGTCTAATTAATTAGGTTGTGTTTCTATTTCAACGGAGTCACCTAGTGCAG | 27300 fluorescence intensity (a.u.)
AGGAAATTTTGCGTTTAGCCATCAATTGATCTATTCATGGCGGAGTCACCTAGTGCAG | 3870 fluorescence intensity (a.u.)
TTGATCGATCACGCCAATTACCGGGTGCAGCTGCAAGCCTCGGAGTCACCTAGTGCAG | 9470 fluorescence intensity (a.u.)
ATAAAATAGAGATAAATGGAGATGTGTTTCTCCCATTACCCGGAGTCACCTAGTGCAG | 4690 fluorescence intensity (a.u.)
TCTAATGATGCGTTAATACTAGTATACATCTGTAATGTCACGGAGTCACCTAGTGCAG | 3470 fluorescence intensity (a.u.)
GATGATGGGGAATAAACTAATAATAAAATGGATATGTAGACGGAGTCACCTAGTGCAG | 7470 fluorescence intensity (a.u.)
TTTTCAATGATTGGTATATGTGTGCTTGTGACATATATGCCGGAGTCACCTAGTGCAG | 37000 fluorescence intensity (a.u.)
GGGTGGGAGGGAGGGAGTACATGGTAAGGCCATTCAACAGCGGAGTCACCTAGTGCAG | 6320 fluorescence intensity (a.u.)
GCAGACGATGATGATATGACTGAAATACCCTCACCGTCCTCGGAGTCACCTAGTGCAG | 5860 fluorescence intensity (a.u.)
CCGTTGACAGAGGTAGTACCTTACCATATTGGTCAGTAGCCGGAGTCACCTAGTGCAG | 15500 fluorescence intensity (a.u.)
ATAAATTTTAAAGTTAACCTAATGGTTTTAAAATATATGACGGAGTCACCTAGTGCAG | 6590 fluorescence intensity (a.u.)
GAGATAATTGAAGCTTTGTTAAGCTTAAACACTGAACTAACGGAGTCACCTAGTGCAG | 16400 fluorescence intensity (a.u.)
AGCAGATGAGTTGACAGGCAGGTTCTTGTCTTCACACTGTCGGAGTCACCTAGTGCAG | 6630 fluorescence intensity (a.u.)

Sequence | binding signal
GGATGAGTTAATTTACATGGCTTATAAGGCTCGATGCTCCCGGAGTCACCTAGTGCAG | 8320 fluorescence intensity (a.u.)
AAGAATTTAAGCAAATTACCTTTATTACAAATTACTGATCCGGAGTCACCTAGTGCAG | 5860 fluorescence intensity (a.u.)
ATTATAATTGAAGTATAGTTGTACTGTAACTGTATTGTAACGGAGTCACCTAGTGCAG | 32500 fluorescence intensity (a.u.)
AAAGAAAATGTTGACTGGATTGACACGCGTACGCTATGTACGGAGTCACCTAGTGCAG | 16700 fluorescence intensity (a.u.)
TCCTGATGAGCAGAATCCAATCAGAAAACGCATGCTCGATCGGAGTCACCTAGTGCAG | 19300 fluorescence intensity (a.u.)
ATCTCGCCCAATTATTAACGCCTCCCTTTGTACACCGCACCGGAGTCACCTAGTGCAG | 3720 fluorescence intensity (a.u.)
TCCATATTAATTGACGTTTTAGACAAGGTTGATGTCAAATCGGAGTCACCTAGTGCAG | 42600 fluorescence intensity (a.u.)
TTAAATAGAGTTAGATTGAGGAATTACCAAAATAGAAATTCGGAGTCACCTAGTGCAG | 19500 fluorescence intensity (a.u.)
GCATTTTATGTAAACTAATTGAGCACTTGAGGTGTTGAAGCGGAGTCACCTAGTGCAG | 10400 fluorescence intensity (a.u.)
CAACTTCATCAGCAGAAATTGACATGGTGTGATATTTGTGCGGAGTCACCTAGTGCAG | 3970 fluorescence intensity (a.u.)
GATTCCAAATTGACACTAAACCAAACCAAACCAATCCAACCGGAGTCACCTAGTGCAG | 13500 fluorescence intensity (a.u.)
TGTTTGTGTATGTTATGTCTGTAATTACTTTTAGGCATTGCGGAGTCACCTAGTGCAG | 3620 fluorescence intensity (a.u.)
AGGTAATTATAGTCCTTTTCTTATAACATTAATATATGCTCGGAGTCACCTAGTGCAG | 16100 fluorescence intensity (a.u.)
AAAGATTGCTTACGATAGTTTGTATGAATGAAAAGTGACCCGGAGTCACCTAGTGCAG | 5330 fluorescence intensity (a.u.)
GCTGCGCATATAATTATTCCCTCGCCAAGCTATATATATTCGGAGTCACCTAGTGCAG | 3290 fluorescence intensity (a.u.)
AACTTCAAATTAGTAAACGAAAAGTTTCTGAGTTGGGAAACGGAGTCACCTAGTGCAG | 3780 fluorescence intensity (a.u.)
AGATTGCTTTACAATGATTAGATTGCTTTCCAATGGGACGCGGAGTCACCTAGTGCAG | 13500 fluorescence intensity (a.u.)
AGTGATGACATATAATTAACACAACTTTAGCTTGTACTTTCGGAGTCACCTAGTGCAG | 30100 fluorescence intensity (a.u.)
ACCTTTTCTTGGAATTGGACCAAACAGTTTCAACTCCACCCGGAGTCACCTAGTGCAG | 5360 fluorescence intensity (a.u.)
CCCTAAAATTAACCAACCAAACCAAATCGCGTTTAATTTTCGGAGTCACCTAGTGCAG | 5210 fluorescence intensity (a.u.)
AGGCCTGGGATGATTGAGATGATACTTAAGTATCTTGGAGCGGAGTCACCTAGTGCAG | 12100 fluorescence intensity (a.u.)

Sequence | binding signal
ACTCACGCGCAATTAGCTGGTTTTGATGGGTCAGGAGGAACGGAGTCACCTAGTGCAG | 5020 fluorescence intensity (a.u.)
GAAGATTGGGCCAGTAAATGGGCCTATAAATCGGGACGTTCGGAGTCACCTAGTGCAG | 13500 fluorescence intensity (a.u.)
TAGTCCTAATTACTAACTACCAAATCTCTTGGATCTTGATCGGAGTCACCTAGTGCAG | 11500 fluorescence intensity (a.u.)
AACCTTAAATTAGCGGGCAAATTCAGGAGTACTTCAGTGGCGGAGTCACCTAGTGCAG | 22400 fluorescence intensity (a.u.)
TTCTCACGTCTAACCAATCACTTCTCTCCATTTACGAACCCGGAGTCACCTAGTGCAG | 8150 fluorescence intensity (a.u.)
GAAGTAAACGTAACTCAATTAATTAGATTTCTAAGATTATCGGAGTCACCTAGTGCAG | 5680 fluorescence intensity (a.u.)
AAAATTATTTGTTGAAACATATAAATAGATCACGTGCAACCGGAGTCACCTAGTGCAG | 3790 fluorescence intensity (a.u.)
CTAGACAGACTGGCATCAGTCAAGCTTTCTCAAGTGAAAACGGAGTCACCTAGTGCAG | 23800 fluorescence intensity (a.u.)
GCAGAGAGAGGGGAGGAGGGTGGGTGGCGGCGGCGGCTAGCGGAGTCACCTAGTGCAG | 3440 fluorescence intensity (a.u.)
GAGGAGAAGGTCAGTCAATCAGTGGCCGATCCCAATCGAACGGAGTCACCTAGTGCAG | 6750 fluorescence intensity (a.u.)
GAGTAATAATTGTACTCTATTATCAATTTGTTATTATGTACGGAGTCACCTAGTGCAG | 12600 fluorescence intensity (a.u.)
ACCAAATTTCCTAGAAAATTAGGAGTGTCTGGTTGGTTTCCGGAGTCACCTAGTGCAG | 5400 fluorescence intensity (a.u.)
TTTTCTTGACTGATAGAAGAGTCAAAAGTTTGTGAGCAAACGGAGTCACCTAGTGCAG | 8150 fluorescence intensity (a.u.)
AGGTCAATTAAGCGGCCTCCTACCGTACCACACAACTACACGGAGTCACCTAGTGCAG | 7080 fluorescence intensity (a.u.)
GACAAGATCAGTCCTAATTATATATATGTTTTACCTTCTACGGAGTCACCTAGTGCAG | 4490 fluorescence intensity (a.u.)
AATCAATCAATTAGTTAGAGATCAAGTTATTAGTGTCCAACGGAGTCACCTAGTGCAG | 31100 fluorescence intensity (a.u.)
CATCTATACATATAATTAGTTAGGTATGTAATCATGGATTCGGAGTCACCTAGTGCAG | 3440 fluorescence intensity (a.u.)
ATCGTAGTGTAATTACACTGTAACTTATATGTAATTACACCGGAGTCACCTAGTGCAG | 12100 fluorescence intensity (a.u.)
GTGTAATTACACTATAATTGCACTATAATTATATCTGTCACGGAGTCACCTAGTGCAG | 61500 fluorescence intensity (a.u.)
TGTGTTTGATCAATCAGCTCCAAACTTTCGTTATTTATTTCGGAGTCACCTAGTGCAG | 7050 fluorescence intensity (a.u.)
CACGTAGGCGCTAATTAGGGCACCCACAATGGTTATCTATCGGAGTCACCTAGTGCAG | 4920 fluorescence intensity (a.u.)
